Measured values taken from article PMC4336329 (PLoS ONE, 2015).
The campaign covered roughly 310,000 compounds. About 2,200 (0.71%) showed an effect of 50% or more. The effect is printed as a negative number. The list shows a part of the results.

target: human ether-à-go-go-related gene (hERG) potassium channel (human, UniProt Q12809); experiment: primary screen, population patch clamp on CHO cells stably expressing hERG
Sequence (Q12809 whole entry, looked up): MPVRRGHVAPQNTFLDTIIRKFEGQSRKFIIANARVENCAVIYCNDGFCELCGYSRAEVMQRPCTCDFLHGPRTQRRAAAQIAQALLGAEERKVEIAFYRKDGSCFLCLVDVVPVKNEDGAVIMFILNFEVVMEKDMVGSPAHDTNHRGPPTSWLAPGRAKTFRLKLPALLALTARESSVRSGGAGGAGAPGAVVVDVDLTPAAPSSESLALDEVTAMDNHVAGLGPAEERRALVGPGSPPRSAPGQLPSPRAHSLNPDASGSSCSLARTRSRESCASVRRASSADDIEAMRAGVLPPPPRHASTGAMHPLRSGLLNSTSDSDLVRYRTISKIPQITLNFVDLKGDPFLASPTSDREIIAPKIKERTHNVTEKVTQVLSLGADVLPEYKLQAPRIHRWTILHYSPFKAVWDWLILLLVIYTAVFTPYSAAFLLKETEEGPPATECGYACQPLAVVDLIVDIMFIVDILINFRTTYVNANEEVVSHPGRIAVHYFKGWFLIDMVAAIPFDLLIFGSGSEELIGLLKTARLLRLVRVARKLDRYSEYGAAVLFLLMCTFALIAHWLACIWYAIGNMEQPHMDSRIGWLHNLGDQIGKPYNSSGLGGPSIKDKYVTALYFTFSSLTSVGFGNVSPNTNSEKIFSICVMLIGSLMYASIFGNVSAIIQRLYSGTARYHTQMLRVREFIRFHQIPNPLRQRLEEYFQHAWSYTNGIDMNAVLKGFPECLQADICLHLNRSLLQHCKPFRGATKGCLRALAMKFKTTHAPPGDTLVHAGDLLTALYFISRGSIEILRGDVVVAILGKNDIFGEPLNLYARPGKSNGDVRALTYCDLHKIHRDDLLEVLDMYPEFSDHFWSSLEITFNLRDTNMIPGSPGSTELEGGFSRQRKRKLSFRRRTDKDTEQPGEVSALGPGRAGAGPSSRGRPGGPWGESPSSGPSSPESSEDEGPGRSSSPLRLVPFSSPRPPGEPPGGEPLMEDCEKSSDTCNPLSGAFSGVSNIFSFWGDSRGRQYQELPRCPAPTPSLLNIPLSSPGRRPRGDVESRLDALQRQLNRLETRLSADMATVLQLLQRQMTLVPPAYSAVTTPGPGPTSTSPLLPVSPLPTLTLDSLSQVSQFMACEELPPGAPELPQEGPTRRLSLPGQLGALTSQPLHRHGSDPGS

First: CN(NC(=O)COc1ccccc1)C1=NS(=O)(=O)c2ccccc21
Second: O=C(c1ccccc1)n1nnc2ccccc21
The “hERG current change (%, negative = inhibition) at 1uM” value of the first is higher: 16.1% for the first, 3.72% for the second.

Going from CCOC(=O)[C@@H]1[C@H]2COc3ccc(Br)cc3[C@H]2N2C(=O)N(c3ccc(F)cc3)C(=O)[C@@]12C to Cc1c(C)c2ccc(OCC(=O)Nc3ccccc3C(N)=O)cc2oc1=O, the “hERG current change (%, negative = inhibition) at 1uM” value falls from 7.35% to 4.86%.

First: COc1ccc(C(C(=O)NC(C)(C)C)N(C(=O)CCC(=O)Nc2cc(C)on2)c2cccc(C)c2C)cc1 (stereo not shown)
Second: Cc1ccc(S(=O)(=O)Nc2ccc(C(=O)Nc3cc(C)on3)cc2)cc1
The “hERG current change (%, negative = inhibition) at 1uM” value of the first is higher: 11.8% for the first, 10.4% for the second.

Compared with Cn1c(OCc2ccco2)nc2c1c(=O)n(Cc1ccc(Cl)c(Cl)c1)c(=O)n2C, COc1ccc(CCN2C(=O)c3ccccc3NC2c2cc(Cl)c(O)c(OC)c2)cc1 (stereo not shown) is higher in “hERG current change (%, negative = inhibition) at 1uM” value: 6.62% for the first, 11.7% for the second.

Going from c1ccc2c(c1)cnc1ccccc12 to CCN(C(=O)c1cc2ccccc2oc1=O)c1ccccc1, the “hERG current change (%, negative = inhibition) at 1uM” value falls from 11.6% to 7.88%.

Compared with O=C(Nc1ccccc1)OCCCc1ccccc1, O=S(=O)(NCCc1ccccc1)c1ccc(Cl)nc1 is lower in “hERG current change (%, negative = inhibition) at 1uM” value: 8.84% for the first, 8.32% for the second.

First: CCOC(=O)c1c(-c2ccccc2)nc2ccc(C)cn12
Second: CCOc1cccc2cc(C(=O)NCc3ccccc3)c(=N)oc12
The “hERG current change (%, negative = inhibition) at 1uM” value of the first is lower: -3.58% for the first, 10.9% for the second.

First: C/C(=N\n1nnnc1Nc1ccccc1)c1ccc(N)cc1
Second: Cc1ccc(NC(=O)c2ccc3c(c2)nnn3C)cc1
The “hERG current change (%, negative = inhibition) at 1uM” value of the first is higher: 12.2% for the first, 10.5% for the second.

First: Cc1nc2sccn2c(=O)c1Cl
Second: Cc1ccn(CCC(=O)N2CCc3ccccc32)n1
The “hERG current change (%, negative = inhibition) at 1uM” value of the first is lower: 10.9% for the first, 11.3% for the second.

Going from CCc1nc(-c2ccc(C)nc2OC)no1 to COc1cc(NC(=O)c2cccc(Br)c2)nc(OC)n1, the “hERG current change (%, negative = inhibition) at 1uM” value falls from 16.5% to 12.6%.

First: Nn1cc(-c2ccccc2)nc1SCC(=O)NCC1CCCO1 (stereo not shown)
Second: Br.Cn1c(=N)n(CC(=O)c2ccccc2)c2ccccc21
The “hERG current change (%, negative = inhibition) at 1uM” value of the first is higher: 9.87% for the first, 4.58% for the second.

Compared with C[n+]1ccccc1/C=N/O.[I-], Cc1ccc(SCC(=O)N/N=C/c2ccco2)cc1 is lower in “hERG current change (%, negative = inhibition) at 1uM” value: 15% for the first, 8.4% for the second.

Compared with N#Cc1ccc(CSc2ccccn2)c(Cl)c1, O=[N+]([O-])c1ccccc1SN(Cc1ccccc1)c1ccccn1 is higher in “hERG current change (%, negative = inhibition) at 1uM” value: 12.6% for the first, 14.9% for the second.

Going from CCCCCC1(C)NC(=S)N(c2ccccc2)N1 (stereo not shown) to CCCCn1c(N)c(NCc2ccccc2OC)c(=O)[nH]c1=O, the “hERG current change (%, negative = inhibition) at 1uM” value rises from 7.72% to 11.9%.

Compared with O=C(c1ccc(Cl)c([N+](=O)[O-])c1)N(Cc1cccc(Cl)c1)C1CCS(=O)(=O)C1 (stereo not shown), Cc1cccc(N(Cc2ccccc2)C(=O)c2ccccc2S(C)(=O)=O)c1 is higher in “hERG current change (%, negative = inhibition) at 1uM” value: 8.54% for the first, 16.5% for the second.

Compared with O=C(NCCCN1CCCC1=O)c1cccc(N2CCCC2=O)c1, COc1ccccc1NS(=O)(=O)c1cc(C(=O)NCC(c2ccco2)N2CCCCC2)ccc1C (stereo not shown) is lower in “hERG current change (%, negative = inhibition) at 1uM” value: 10.9% for the first, -7.95% for the second.

Going from c1coc(-c2nc3nc4ccccc4n3nc2-c2ccco2)c1 to Cn1nnc(NC(=S)NC(=O)c2cccc3ccccc23)n1, the “hERG current change (%, negative = inhibition) at 1uM” value rises from 15% to 19.9%.

First: COc1ccc(CC(=O)N2CCN=C2SC)cc1
Second: COc1ccc(-c2cc(-c3ccccc3O)[nH]n2)cc1
The “hERG current change (%, negative = inhibition) at 1uM” value of the first is higher: 14.4% for the first, 13.9% for the second.

Compared with Cc1ccc(S(=O)(=O)NCCC(=O)Nc2cc(F)ccc2C)cc1C, COc1ccc(S(=O)(=O)NCc2ccncc2)cc1NC(=O)c1ccccc1 is lower in “hERG current change (%, negative = inhibition) at 1uM” value: 11.6% for the first, -5.36% for the second.

Compared with Fc1ccccc1CNC(=S)NCc1ccc(Cl)cc1, CCN(CC(=O)Nc1c(F)cccc1F)C(=O)CNC(=O)c1ccco1 is lower in “hERG current change (%, negative = inhibition) at 1uM” value: 8.07% for the first, 4.72% for the second.

Going from Cc1cc(C)[n+]2n1C(=O)C(c1ccccc1)=C2[O-] to COc1cc2[nH]c(-c3ccc(C)cc3)cc(=O)c2cc1OC, the “hERG current change (%, negative = inhibition) at 1uM” value falls from 14.9% to 9.12%.

Going from CC(C)(C)NC(=O)c1cccc(NC(=O)c2cccc(O)c2)c1 to COc1ccc(/C=C/C(=O)O)cc1S(=O)(=O)N1CCc2ccccc2C1, the “hERG current change (%, negative = inhibition) at 1uM” value rises from 3.16% to 12.6%.

Going from Cc1ccc(NC(=O)CS(=O)CC(=O)N2CCN(C3CCCC3)CC2)cc1 (stereo not shown) to O=C(CNc1ccc(Br)cc1)Nc1ccc(S(=O)(=O)N2CCCC2)cc1, the “hERG current change (%, negative = inhibition) at 1uM” value falls from 19.6% to -5.67%.

Compared with CC1CCN(S(=O)(=O)c2cn(CC(=O)N3CC(C)CC(C)C3)c(=O)c3ccccc23)CC1 (stereo not shown), CC1CC(C)CN(C(=O)C2CCN(S(=O)(=O)c3ccc4c(c3)CC(C)N4C(=O)C3CC3)CC2)C1 (stereo not shown) is lower in “hERG current change (%, negative = inhibition) at 1uM” value: 10.7% for the first, 10.2% for the second.

Compared with O=C(c1ccc2c(c1)OCO2)C1CCCN(Cc2c(F)ccc(F)c2F)C1 (stereo not shown), CCNc1cc2oc(=O)c(CN3CCOCC3)c(C)c2cc1C is lower in “hERG current change (%, negative = inhibition) at 1uM” value: 11.5% for the first, 0.327% for the second.

First: C=CCOc1ccc(CN(C)CC(O)COc2ccc(CCC(C)=O)cc2)cc1 (stereo not shown)
Second: CCOc1cccc(C=NCCc2ccc(OC)c(OC)c2)c1O
The “hERG current change (%, negative = inhibition) at 1uM” value of the first is lower: -6.81% for the first, 15.9% for the second.

Going from O=c1c2ccccc2c(-c2ccc(O)cc2)nn1-c1cccc(C(F)(F)F)c1 to Cc1ccc(-c2nnc(Nc3ccc(CC(N)=O)cc3)c3ccccc23)cc1S(=O)(=O)NCCO, the “hERG current change (%, negative = inhibition) at 1uM” value falls from 13.9% to 8.63%.

Going from CC1(C)CC(NC(=O)c2cc(S(=O)(=O)N3CCCCC3)ccc2Cl)CC(C)(C)N1 to Cc1c(CC(=O)N[C@@H](CCCNC(N)=O)C(=O)O)c(=O)oc2cc3oc4c(c3cc12)CCCC4, the “hERG current change (%, negative = inhibition) at 1uM” value rises from -3.75% to 16%.

Compared with CCOC(=O)C[N+](CC)(CC)CC#Cc1ccccc1, CCOC(=O)CC(=O)CSc1[nH]c(=O)cc(C)c1C#N is lower in “hERG current change (%, negative = inhibition) at 1uM” value: 12.1% for the first, 7.73% for the second.
